Reference: PubChem BioAssay AID624417 (National Center for Advancing Translational Sciences (NCATS), 2012)
Out of some 410,000 compounds screened, about 6,400 (1.6%) were called active. This list was built around the results that the source calls inconclusive (neither active nor inactive); the mix of calls is not that of the screen. Calls follow the shape of the dose curve; as a rule, active = well fitted inhibition curve with a large enough effect; inconclusive = small, poorly fitted or top-dose-only effect; inactive = no such curve, though single readings can be large or run the other way. Potencies of inconclusive entries are doubtful fits and often do not repeat.

These compounds were tested against Glucagon-like peptide 1 receptor (Homo sapiens) (UniProt P43220) (assay: qHTS of GLP-1 Receptor Inverse Agonists (Inhibition Mode)). Details: HEK293 GLP-1R CRE-luciferase, luminescence, 24 h, GLP-1R form is constitutively active; activity change, negative = inhibition: at 38.3 µM (top of the series) unless noted.
Chain of UniProt P43220 (P43220 whole entry, looked up): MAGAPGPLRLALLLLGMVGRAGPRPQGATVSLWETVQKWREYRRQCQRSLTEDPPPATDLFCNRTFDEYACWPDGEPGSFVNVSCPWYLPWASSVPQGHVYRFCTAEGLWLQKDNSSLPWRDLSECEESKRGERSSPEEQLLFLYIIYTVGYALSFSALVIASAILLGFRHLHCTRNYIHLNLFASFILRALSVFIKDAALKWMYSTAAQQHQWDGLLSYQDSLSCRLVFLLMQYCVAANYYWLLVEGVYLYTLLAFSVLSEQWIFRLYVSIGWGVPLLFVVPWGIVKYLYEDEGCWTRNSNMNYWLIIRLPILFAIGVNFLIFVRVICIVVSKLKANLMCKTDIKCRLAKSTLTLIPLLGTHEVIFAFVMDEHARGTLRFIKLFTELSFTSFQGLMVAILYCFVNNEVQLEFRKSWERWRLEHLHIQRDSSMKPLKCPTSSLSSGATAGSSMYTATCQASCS
How it was run: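 Readout was luciferase luminescence, measured 12 min after detection reagent at room temperature. Beforehand, GLP-1R reporter HEK293 cells had sat 12 h, then received compounds for 24 hr at 37 deg C.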
% is scaled to controls: 0 for no effect and ±100 for the full control effect; potency is read from the fitted curve at half-maximal effect; tags tell the direction and shape of the fitted curve.
Also: nearly all actives have a fitted effect of over 55% in size.

Potency, active:
O=C(NNC1=C(C(=O)C(F)(F)F)CCC1)c1ccccc1O 2.82 µM

Potency, inconclusive:
Cc1cccc(N2CCN(C(=S)c3ccccc3)CC2)c1 10 µM [inhibitor, partial curve, poor fit]
COC(=O)[C@H](Cc1ccccc1)NC(=O)c1ccc2ccccc2n1 11.2 µM [inhibitor, partial curve, poor fit]
CN(Cc1cccc(F)c1)C(=O)C(c1ccccc1)c1ccccc1 6.31 µM [inhibitor, partial curve, poor fit]
Cc1nn(C)c(C(=O)NNC(=O)Nc2cccc(C(F)(F)F)c2)c1Cl 22.4 µM [inhibitor, single point]
COc1ccc(NC(=S)N2CCC3CC2c2cc(-c4ccc5c(c4)OCO5)ccc23)c(OC)c1 (configuration not stated) 25.1 µM [inhibitor, single point]
COc1ccc(CNC(=O)C(c2ccc(C)o2)N(C(=O)c2snc(C(N)=O)c2N)c2ccccc2OC)cc1 (configuration not stated) 28.2 µM [inhibitor, single point]
C[C@@H](NC(=O)c1[nH]cnc1C(=O)Nc1ccccc1F)c1ccccc1 14.1 µM [inhibitor, single point]
Cc1cc(=O)oc2c1ccc1oc(/C(=N/O)c3ccccc3)c(C)c12 28.2 µM [inhibitor, single point]
COc1ccc(C(CNC(=O)Nc2ccc(Cl)cc2)N2CCN(C)CC2)cc1 (configuration not stated) 12.6 µM [inhibitor, partial curve, poor fit]
COC(=O)c1c(SC)nc2ccccc2c1OCc1ccccc1C 28.2 µM [inhibitor, single point]
CN(CCc1ccccc1)C(=O)c1ccc(NC(=O)Cc2ccc([N+](=O)[O-])cc2)cc1 11.2 µM [inhibitor, partial curve, poor fit]
COc1ccc(C(C)=O)cc1CN(c1ccccc1OC)S(=O)(=O)c1cccs1 8.91 µM [inhibitor, single point]
CC(C)(C)c1ccc(CC(=O)N2CCC2(C)C(=O)Nc2ccc3[nH]ncc3c2)cc1 (configuration not stated) 12.6 µM [inhibitor, single point]
CC(=O)c1ccc(NC(=O)C2C3C=CC(C3=C(c3ccccc3)c3ccccc3)C2C(=O)O)cc1 (configuration not stated) 28.2 µM [inhibitor, single point]
CCc1ccc(OCC(=O)Nc2ccncc2)c(Br)c1 28.2 µM [inhibitor, single point]
Oc1ccccc1-c1cc(-c2cccc(F)c2)n[nH]1 10 µM [inhibitor, single point]
CCOC(=O)C1(Cc2cccc(F)c2)CCN(Cc2cnc(C)s2)CC1 12.6 µM [inhibitor, single point]
Cc1ccc(-n2c(C)cc(/C=N/Nc3ccc([N+](=O)[O-])cn3)c2C)c(C)c1 28.2 µM [inhibitor, single point]
Cc1cccc(NC(=O)c2nc(S(C)(=O)=O)ncc2Cl)c1 22.4 µM [inhibitor, single point]
Cc1ccc2oc(C(=O)N3CCN(c4cccc(C)n4)CC3)c(C)c2c1 28.2 µM [inhibitor, single point]
Cc1ccc2cc(C#N)c(N3CCCN(C(=S)NCCCN(C)C)CC3)nc2c1 2.24 µM [inhibitor, full curve, poor fit]
COc1ccc(F)cc1CSc1nnnn1-c1ccc(O)cc1 11.2 µM [inhibitor, partial curve, poor fit]
NS(=O)(=O)c1ccc(CCNCc2cc(Cl)ccc2OCc2ccccc2)cc1 11.2 µM [inhibitor, single point]
Clc1ccc(-n2c(SC/C=C/c3ccccc3)nnc2-c2cccnc2)cc1 22.4 µM [inhibitor, single point]
CC(=O)/C(C#N)=C1\NC(=O)C(Cc2ccc(F)cc2)S1 (configuration not stated) 28.2 µM [inhibitor, single point]
CSCCC(C(=O)NCc1ccccc1)n1c(Cc2cc(F)cc(F)c2)nc2ccccc21 (configuration not stated) 28.2 µM [inhibitor, single point]
O=C(NCCc1ccccc1)/C(=C/c1ccco1)c1ccccc1 28.2 µM [inhibitor, single point]
COc1ccc(Br)cc1/C=N/N1CCN(Cc2ccccc2Cl)CC1 11.2 µM [inhibitor, partial curve, poor fit]
Cc1ccc(NC(=O)CN(C)C(=O)Cn2nnc(-c3ccccc3C)n2)cc1 10 µM [inhibitor, partial curve, poor fit]
Cc1c(C(=O)NCc2ccccc2C(F)(F)F)sc(=O)n1Cc1ccc2ccccc2c1 11.2 µM [inhibitor, partial curve, poor fit]
Cc1cccc(C(CC(=O)NCc2ccco2)c2ccccc2)c1O (configuration not stated) 14.1 µM [inhibitor, single point]
O=C(Nc1cccc(O)c1)c1cccc(C(=O)Nc2cccc(O)c2)c1 8.91 µM [inhibitor, partial curve]
O=C(Nc1ccc(-c2csc(Nc3cccc(C(F)(F)F)c3)n2)cc1)c1ccccc1 2.51 µM [inhibitor, partial curve, poor fit]
O=C(N/N=C/c1ccccn1)c1cc(-c2ccc(Br)cc2)nc2ccccc12 3.16 µM [inhibitor, partial curve, poor fit]
CC1(C(=O)NS(=O)(=O)c2ccc(Cl)cc2)CCN1C(=O)Cc1cccc2ccccc12 (configuration not stated) 15.8 µM [inhibitor, partial curve, poor fit]
O=C1C=CC(O)(c2cc(=O)c3c(O)cc(O)cc3o2)C=C1 14.1 µM [inhibitor, single point]
CCCCN([C@H](CO)C(C)C)S(=O)(=O)c1ccccc1Br 14.1 µM [inhibitor, single point]
Cc1cc(C)c(NC(=S)N(CCN(C)C)Cc2cccs2)c(C)c1 31.6 µM [inhibitor, single point]
COc1ccc(-n2c(SCc3ccc([N+](=O)[O-])cc3)nnc2-c2ccccc2)cc1 11.2 µM [inhibitor, partial curve, poor fit]
CCN(CC(=O)NCc1ccc(Cl)cc1)C(=O)C(C)Sc1ccccc1 (configuration not stated) 11.2 µM [inhibitor, partial curve, poor fit]
CNc1ccc(Br)cc(C(=O)/C=C/c2ccc3c(c2)OCO3)c1=O 28.2 µM [inhibitor, single point]
CCC(C)C(N=C1NS(=O)(=O)c2ccccc21)C(=O)N1CCC(C)CC1 (configuration not stated) 28.2 µM [inhibitor, single point]
CC1(C)CC2C1CCC1(O)CC2(C)CCC1N(O)c1ccc(C(=O)NCCO)cn1 (configuration not stated) 28.2 µM [inhibitor, single point]
c1ccc(CSc2nnc(-c3c[nH]c4ccccc34)o2)cc1 28.2 µM [inhibitor, single point]
c1ccc(-c2nc(N3CCCCC3)nc3ccccc23)cc1 14.1 µM [inhibitor, single point]
CC(=O)c1ccc(NS(=O)(=O)c2ccc(N/C=C/C(=O)c3ccc(F)cc3)cc2)cc1 28.2 µM [inhibitor, single point]
CC(C)Cn1cnc2c(c1=N)C(c1ccccc1)C1=C(CC(C)(C)CC1=O)O2 (configuration not stated) 15.8 µM [inhibitor, partial curve, poor fit]
COc1cc(OC)cc(C(=O)NC(=S)Nc2ccc(N3CCCC3)cc2)c1 2.51 µM [inhibitor, full curve, poor fit]

Activity change, negative = inhibition, inactive:
COc1ccc(-c2ccc3c(N)c(C(=O)NCc4ccc(Cl)cc4)sc3n2)cc1 25.9%
CCn1cc(C(=O)N2CCN(c3ccccc3F)CC2)c(=O)c2cc(S(=O)(=O)N(C)C3CCCCC3)ccc21 5.8%
O=C(CN1C(=O)COc2ccc(S(=O)(=O)N3CCOCC3)cc21)NCc1ccc(F)cc1 -4.38%
O=C(CN1C(=O)c2ccccc2C1=O)Nc1cc(C(=O)O)cc(C(=O)O)c1 25.5%
Cc1ccc(-n2c(O)c(C=Nc3ccccc3-c3n[nH]c(=S)[nH]c3=O)c3ccccc3c2=O)c(C)c1 -11%
Nn1c(SCC(=O)Nc2ccccc2Br)nnc1-c1ccco1 7.26%
O=C(NC(=S)Nc1ccccc1[N+](=O)[O-])c1ccccc1 6.46%
Cn1c(=O)[nH]c(=O)c2c1nc(Br)n2CCC(=O)c1ccccc1 19.2%
Cc1[nH]c(C)c(S(=O)(=O)N2c3ccccc3CC2C)c1C(=O)N1CCCCC1 (configuration not stated) -33.9%
O=c1c2ccccc2nc2ccc(NCc3ccco3)nn12 56.1%
S=c1[nH]nc(CNc2ccc(Cl)cc2)n1Cc1ccccc1 -11.5%
Cc1cccc(N(C(=O)CNC(=O)c2ccco2)C(C(=O)NC2CCCC2)c2cccnc2)c1C (configuration not stated) 3.8%

Activity change, negative = inhibition, inconclusive:
Cc1ccccc1C(=O)N1CC(=O)Nc2ccc(F)cc2C1c1ccc(F)cc1 (configuration not stated) -35.5% [inhibitor]
